According to EPA's CvTdb concentration-time database:
Further values from the same series stand in other lists.

Columns and labels:
Assay in all cases: concentration in plasma after dosing
Rat [1] = conditions: 0.5 h; dosed: 2-Hydroxy-4-methoxybenzophenone; 8 mg/kg; iv; Female; F344
Rat [2] = conditions: 10 min; dosed: 2-Hydroxy-4-methoxybenzophenone; 8 mg/kg; iv; Male; F344
Rat [3] = conditions: 2 h; dosed: 2-Hydroxy-4-methoxybenzophenone; 500 mg/kg; oral; Male; F344
Rat [4] = conditions: 2 h; dosed: 2-Hydroxy-4-methoxybenzophenone; 100 mg/kg; oral; Female; F344
Mouse [5] = conditions: 10 h; dosed: 2-Hydroxy-4-methoxybenzophenone; 500 mg/kg; oral; Female; B6C3F1
Rat [6] = conditions: 0.25 h; dosed: 2-Hydroxy-4-methoxybenzophenone; 8 mg/kg; iv; Female; F344
Mouse [7] = conditions: 4 h; dosed: 2-Hydroxy-4-methoxybenzophenone; 250 mg/kg; oral; Male; B6C3F1
Mouse [8] = conditions: 1 h; dosed: 2-Hydroxy-4-methoxybenzophenone; 50 mg/kg; iv; Male; B6C3F1
Rat [9] = conditions: dosed: 2-Hydroxy-4-methoxybenzophenone, 100 mg/kg, oral, Female, F344
Rat [10] = conditions: dosed: 2-Hydroxy-4-methoxybenzophenone, 100 mg/kg, oral, Male, F344
Mouse [11] = conditions: 2.5 min; dosed: 2-Hydroxy-4-methoxybenzophenone; 500 mg/kg; oral; Female; B6C3F1
Mouse [12] = conditions: 5 min; dosed: 2-Hydroxy-4-methoxybenzophenone; 500 mg/kg; oral; Male; B6C3F1
Rat [13] = conditions: 5 min; dosed: 2-Hydroxy-4-methoxybenzophenone; 8 mg/kg; iv; Female; F344
Rat [14] = conditions: dosed: 2-Hydroxy-4-methoxybenzophenone, 250 mg/kg, oral, Male, F344
Mouse [15] = conditions: 2.5 min; dosed: 2-Hydroxy-4-methoxybenzophenone; 500 mg/kg; oral; Female; B6C3F1; remark: listed apart in the source
Mouse [16] = conditions: 8 h; dosed: 2-Hydroxy-4-methoxybenzophenone; 500 mg/kg; oral; Male; B6C3F1
Mouse [17] = conditions: 6 h; dosed: 2-Hydroxy-4-methoxybenzophenone; 500 mg/kg; oral; Male; B6C3F1
Mouse [18] = conditions: 8 h; dosed: 2-Hydroxy-4-methoxybenzophenone; 500 mg/kg; oral; Female; B6C3F1
Rat [19] = conditions: dosed: 2-Hydroxy-4-methoxybenzophenone, 8 mg/kg, iv, Male, F344
Mouse [20] = conditions: 1.5 h; dosed: 2-Hydroxy-4-methoxybenzophenone; 250 mg/kg; oral; Male; B6C3F1
Mouse [21] = conditions: 0.5 h; dosed: 2-Hydroxy-4-methoxybenzophenone; 50 mg/kg; iv; Female; B6C3F1
Rat [22] = conditions: dosed: 2-Hydroxy-4-methoxybenzophenone, 250 mg/kg, oral, Female, F344
Mouse [23] = conditions: 8 h; dosed: 2-Hydroxy-4-methoxybenzophenone; 50 mg/kg; iv; Female; B6C3F1
Mouse [24] = conditions: 6 h; dosed: 2-Hydroxy-4-methoxybenzophenone; 500 mg/kg; oral; Female; B6C3F1
Rat [25] = conditions: dosed: 2-Hydroxy-4-methoxybenzophenone, 250 mg/kg, oral, Male, F344; remark: listed apart in the source
Mouse [26] = conditions: 4 h; dosed: 2-Hydroxy-4-methoxybenzophenone; 250 mg/kg; oral; Female; B6C3F1
Mouse [27] = conditions: 5 min; dosed: 2-Hydroxy-4-methoxybenzophenone; 500 mg/kg; oral; Female; B6C3F1
Mouse [28] = conditions: 1 h; dosed: 2-Hydroxy-4-methoxybenzophenone; 50 mg/kg; iv; Male; B6C3F1; remark: listed apart in the source
Mouse [29] = conditions: 5 min; dosed: 2-Hydroxy-4-methoxybenzophenone; 250 mg/kg; oral; Male; B6C3F1
Mouse [30] = conditions: 0.5 h; dosed: 2-Hydroxy-4-methoxybenzophenone; 50 mg/kg; iv; Female; B6C3F1; remark: listed apart in the source
Rat [31] = conditions: 1.5 h; dosed: Perfluorohexanoic Acid; 40 mg/kg; Male; F344
Rat [32] = conditions: dosed: Perfluorohexanoic Acid, 160 mg/kg, oral, Female, Harlan Sprague Dawley
Rat [33] = conditions: dosed: Perfluorohexanoic Acid, 160 mg/kg, oral, Female, Harlan Sprague Dawley; remark: listed apart in the source
Rat [34] = conditions: dosed: Perfluorohexanoic Acid, 160 mg/kg, oral, Female, Harlan Sprague Dawley; remark: listed apart in the source
Rat [35] = conditions: 12 h; dosed: Perfluorohexanoic Acid; 80 mg/kg; oral; Male; Harlan Sprague Dawley
Rat [36] = conditions: dosed: Perfluorohexanoic Acid, 160 mg/kg, oral, Male, Harlan Sprague Dawley
Rat [37] = conditions: dosed: Perfluorohexanoic Acid, 40 mg/kg, oral, Female, Harlan Sprague Dawley

O=C(c1ccccc1)c1ccc(O)cc1O [2,4-Dihydroxybenzophenone]
Conditions	concentration in plasma [µg/mL]
Mouse [5]	0.0582
Mouse [7]	0.269
Mouse [8]	0.284
Mouse [11]	0.133
Mouse [12]	0.543
Rat [1]	0.0569
Rat [2]	0.0622
Rat [3]	0.416
Rat [4]	0.0712
Rat [6]	0.103
Rat [13]	0.124

concentration in plasma [µg/mL]
Conditions	1 h	1.5 h	6 h	8 h
Rat [9]	0.195	–	0.0511	–
Rat [10]	–	0.0861	–	0.0364

COc1ccc(C(=O)c2ccccc2)c(O)c1 [2-Hydroxy-4-methoxybenzophenone]
Conditions	concentration in plasma [µg/mL]
Rat [14], 0.5 h	0.216
Rat [14], 10 h	0.0127
Rat [19], 1.5 h	0.123
Rat [19], 12 h	0.0108
Rat [22], 1.5 h	0.327
Rat [22], 8 h	0.0128
Rat [25], 1.5 h	0.508
Rat [25], 8 h	0.026

Conditions	concentration in plasma [µg/mL]
Mouse [15]	0.0701
Mouse [16]	0.032
Mouse [17]	0.0286
Mouse [18]	0.0195
Mouse [20]	0.113
Mouse [21]	2.07
Mouse [23]	0.0294
Mouse [24]	0.0596
Mouse [26]	0.0356
Mouse [27]	1
Mouse [28]	0.935
Mouse [29]	0.0359
Mouse [30]	2.3

O=C(O)C(F)(F)C(F)(F)C(F)(F)C(F)(F)C(F)(F)F [Perfluorohexanoic Acid]
Conditions	concentration in plasma [ng/mL]
Rat [31]	6320
Rat [35]	3070

Conditions	concentration in plasma
Rat [32], 3 h	52.8 µg/mL
Rat [32], 5 min	81 µg/mL
Rat [33], 0.25 h	136 µg/mL
Rat [33], 6 h	4.32 µg/mL
Rat [34], 1 h	155 µg/mL
Rat [34], 24 h	0.0419 µg/mL
Rat [36], 0.25 h	181 µg/mL
Rat [36], 6 h	45.8 µg/mL
Rat [37], 0.5 h	56200 ng/mL
Rat [37], 9 h	131 ng/mL
